Source: PubChem BioAssay (NCATS)
This is one part of the list. Further columns of the screen follow, without active or inactive calls. Compounds called inactive in the main read-out are mostly missing here. The note in brackets gives the kind of curve behind each potency; many fits are weak.

Assay: qHTS Assay for Lipid Storage Modulators (AID 1519)
Details: Drosophila S3 cells, BODIPY lipid droplet/cell ratio, laser cytometry, cells loaded with oleic acid
Procedure, shortened: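 Cells seeded at 5,000 per well were treated with compounds over a concentration series and loaded with oleic acid (400 uM, as added). Lipid droplet fluorescence (488 nm excitation, 500-530 nm channel) was read by laser-scanning cytometry and normalized to 20 uM Triacsin C.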

[1] = measured here: cell count channel max response
[2] = measured here: lipid (BODIPY) channel AC50
[3] = measured here: lipid channel max response
[4] = measured here: cell number channel AC50
Tags describe the fitted curve by direction and shape.

Row | Structure (SMILES) | max response [1] | AC50 [2] | max response [3] | AC50 [4]
1 | COc1ccc(C(=O)N2CCC[C@@]3(CCN(C(=O)Nc4cccc(C#N)c4)C3)C2)cc1 | 22.2% | 8910 nM [rising, full curve, poor fit] | 33.9% | 
2 | COc1cccc(Cn2c(=O)cnc3cnc(OCc4ccccc4)nc32)c1 | 22.9% | 1000 nM [rising, full curve, poor fit] | 29.7% | 
3 | COC(=O)N1CCC2(CC1)CCN(c1ccncc1)CC2 | 27.1% | 224 nM [rising, partial curve, poor fit] | 36.3% | 
4 | N#Cc1cccc(NC(=O)N2CC[C@@]3(CCCN(C(=O)c4cccc(F)c4)C3)C2)c1 | 21.7% | 8910 nM [rising, full curve, poor fit] | 31.9% | 
5 | COc1ccc(-n2c(=O)c(-c3cccs3)nc3cnc(Nc4cccc(OC)c4)nc32)cc1 | 80.5% |  | -40.7% | 3160 nM [rising, partial curve]
6 | O=c1cnc2cnc(Nc3ccccc3)nc2n1CCc1ccccc1 | -5.46% | 1260 nM [rising, full curve, poor fit] | -6.14% | 
7 | CN(C)C(=O)c1ccc(-c2cc(NCc3cccs3)ncn2)cc1 | 26.3% | 4470 nM [rising, partial curve] | 36.2% | 
8 | COCCn1c(=O)c(-c2cccs2)nc2cnc(Oc3ccc(OC)cc3)nc21 | 10.1% |  | -9.64% | 22.4 nM [rising, full curve]
9 | CNC1C(O)C(O[C@H]2C(O)[C@@H](OC3OC(CN)=CCC3N)[C@H](N)C[C@@H]2N)OC[C@]1(C)O (some centres not stated) | 28.6% | 39800 nM [rising, partial curve] | 45.2% | 
10 | Cc1ccccc1-c1nccc(-n2ccnc2)n1 | 8.29% | 891 nM [rising, full curve, poor fit] | 17.5% | 
11 | CCNc1ncc2nc(-c3ccc(F)cc3)c(=O)n(-c3ccc(OC)cc3)c2n1 | 26.5% | 447 nM [rising, full curve, poor fit] | -4.66% | 
12 | CC(C)(C)NCC(O)COc1cccc2c1CC(O)C(O)C2 (configuration not stated) | 16.3% | 3980 nM [falling, single point] | 18.6% | 
13 | CS(C)(=O)=O | 26.7% | 35500 nM [rising, partial curve] | 42.9% | 
14 | Cn1c(=O)c(-c2ccc(Cl)cc2)nc2cnc(Oc3ccccc3)nc21 | 11.8% | 501 nM [rising, full curve, poor fit] | 15.4% | 
15 | CCN(CC)CCOC(=O)c1ccc(N)cc1 | 14.8% | 17800 nM [rising, partial curve, poor fit] | 37.8% | 
16 | COCCn1c(=O)cnc2cnc(OCc3ccccc3)nc21 | 29.5% | 200 nM [rising, full curve] | 37.7% | 
17 | COCCn1c(=O)c(-c2ccc(OC)cc2)nc2cnc(Oc3cccc(Cl)c3)nc21 | 17.7% | 20 nM [rising, full curve, poor fit] | 25.4% | 
18 | COc1ccc(C(=O)N2CCC3(CCCN(Cc4nccs4)C3)CC2)cc1 | 26.5% | 355 nM [rising, full curve] | 39.9% | 
19 | C=C1c2cccc(O)c2C(O)=C2C(=O)[C@]3(O)C(O)=C(C(N)=O)C(=O)C(N(C)C)C3C(O)C12 (some centres not stated) | 25.5% | 28200 nM [rising, single point] | 48.7% | 
20 | O=C(c1cccc(F)c1)N1CCC2(CC1)CCN(c1ccc(-c3ccccc3)cc1)CC2 | 18.6% | 5010 nM [rising, partial curve] | 27% | 
21 | O=C(c1cccc(F)c1)N1CCC2(CC1)CCN(c1ncccn1)CC2 | 3.93% | 355 nM [rising, full curve, poor fit] | 19.3% | 
22 | CN1CCN(c2ncc3nc(-c4ccc(Cl)cc4)c(=O)n(C4CC4)c3n2)CC1 | 28.4% | 4470 nM [rising, partial curve, poor fit] | 39.8% | 
23 | COc1ccc2[nH]cc(CCNc3nc(-c4ccccc4CN(C)C)nc4ccccc34)c2c1 | -29.5% | 39800 nM [falling, single point] | -31.7% | 
24 | COc1ccccc1CNc1ncnc2ccc(-c3cccc(NS(C)(=O)=O)c3)cc12 | -5.8% | 562 nM [rising, single point] | -8.2% | 
25 | COc1cc2cc3c4cc(OC)c(OC)cc4cc[n+]3c(C)c2cc1OC | 12.5% | 28200 nM [rising, single point] | 30.9% | 
26 | O=C(Oc1ccccc1)N1CCC2(CC1)CN(c1ncccn1)C2 | 4.08% |  | 12.7% | 1580 nM [rising, partial curve, poor fit]
27 | CN(Cc1ccco1)c1ncncc1-c1ccccc1C(F)(F)F | 28.9% | 7940 nM [rising, partial curve, poor fit] | 35.1% | 

Row | Structure (SMILES) | max response [1] | AC50 [2] | max response [3] | AC50 [4]
28 | CN1CCN(c2ncc3nc(-c4ccc(Cl)cc4)c(=O)n(CCC#N)c3n2)CC1 | 29% | 20000 nM [rising, partial curve, poor fit] | 39.2% | 
29 | Cc1cnc(CNc2ncnc3ccc(-c4ccccc4C)cc23)cn1 | 12.2% | 7.94 nM [rising, full curve, poor fit] | 15.7% | 
30 | COCCn1c(=O)c(-c2cc(F)cc(F)c2)nc2cnc(Oc3cccc(Cl)c3)nc21 | 15.1% | 1260 nM [rising, partial curve] | -1.98% | 
31 | COc1ccc(-c2coc3cc(O)ccc3c2=O)cc1 | 38.8% | 10000 nM [rising, full curve, poor fit] | 72.7% | 
32 | COC(=O)CCC(C)C1CCC2C3C(C[C@H](O)C12C)C1(C)CC[C@@H](O)CC1C[C@H]3O (some centres not stated) | 27.4% | 15800 nM [rising, full curve, poor fit] | 29.8% | 
33 | N#CCCn1c(=O)c(-c2ccc(Cl)cc2)nc2cnc(N3CCOCC3)nc21 | 25.9% | 447 nM [rising, partial curve] | 34.5% | 
34 | Cc1cnc(CNc2ncnc3ccc(-c4ccccc4C#N)cc23)cn1 | 23% | 39800 nM [rising, single point] | 32.5% | 
35 | CCNc1ncc2nc(-c3ccc(OC)cc3)c(=O)n(Cc3cccs3)c2n1 | 12.6% | 282 nM [rising, full curve, poor fit] | 14.5% | 
36 | O=c1c(-c2ccccc2)nc2cnc(N3CCOCC3)nc2n1CCc1ccccc1 | 11.4% | 20 nM [rising, full curve, poor fit] | 9.59% | 
37 | Cc1nc2cnc(N3CCNCC3)nc2n(-c2ccccc2)c1=O | 32.7% | 35500 nM [rising, partial curve, poor fit] | 37.5% | 
38 | Clc1ccccc1-c1cc(NCCN2CCOCC2)ncn1 | 29.5% | 1120 nM [rising, full curve] | 32.9% | 
39 | CN1CCN(c2ncncc2-c2cccnc2)CC1 | 17.5% |  | 17.7% | 3160 nM [rising, single point]
40 | O=c1c(O)c(-c2ccc(O)cc2)oc2ccc(O)cc12 | -23.5% |  | -26.4% | 2510 nM [rising, full curve, poor fit]
41 | CN(C)c1ccc(-c2cncnc2NCCN2CCOCC2)cc1 | 31.7% | 2820 nM [rising, full curve] | 34.7% | 
42 | COC(=O)N1CCC[C@@]2(CCN(C(=O)Nc3ccc(OC)cc3)C2)C1 | 11% | 56.2 nM [rising, full curve, poor fit] | 21.5% | 
43 | O=C(Nc1cccc(F)c1)N1CC2(CCN(C(=O)c3ccncc3)CC2)C1 | 25.7% | 39800 nM [rising, single point] | 41.7% | 
44 | COc1cccc(Cn2c(=O)c(-c3cccc(C#N)c3)nc3cnc(OC)nc32)c1 | 20.8% | 100 nM [rising, full curve] | 26% | 
45 | COCCn1c(=O)c(-c2cc(F)cc(F)c2)nc2cnc(OC)nc21 | 29.7% | 562 nM [rising, full curve] | 37.8% | 
46 | COc1cc2nc(N3CCN(C(=O)[C@H]4CCCO4)CC3)nc(N)c2cc1OC | 56.5% |  | 77.6% | 28200 nM [rising, partial curve]
47 | COc1cccc(-c2cc(=O)c3cc(O)ccc3o2)c1 | 72.9% | 4470 nM [rising, partial curve] | 123% | 
48 | N#Cc1ccc(CN2CC[C@@]3(CCCN(C(=O)c4ccco4)C3)C2)cc1 | 21% | 1410 nM [rising, full curve, poor fit] | 30.4% | 
49 | N#CCCn1c(=O)c(-c2ccc(F)cc2)nc2cnc(Oc3cccc(Cl)c3)nc21 | 15.8% | 562 nM [rising, partial curve, poor fit] | 21.3% | 
50 | CNC1C(O)C2OC3OC(C)CC(=O)[C@@]3(O)O[C@H]2[C@H](NC)C1O (some centres not stated) | 26.5% | 39800 nM [rising, single point] | 46.2% | 
51 | O=C(Nc1cccc(F)c1)N1CCC2(CC1)CCN(C(=O)c1cccc(F)c1)CC2 | 9.01% | 251 nM [rising, full curve, poor fit] | 21.6% | 
52 | CCNc1ncc2ncc(=O)n(CCc3ccccc3)c2n1 | 18.1% | 17.8 nM [rising, full curve, poor fit] | 23.1% | 
53 | CN(C)Cc1ccccc1-c1nccc(NC2CC2)n1 | 29.3% | 31600 nM [rising, single point] | 43.9% | 
54 | COc1ncc2nc(-c3ccc(Cl)cc3)c(=O)n(Cc3cccs3)c2n1 | 6.69% | 1410 nM [rising, partial curve] | 13.8% | 
